# Source: PubChem BioAssay AID651820 (National Center for Advancing Translational Sciences (NCATS), 2012)
# In all, about 340,000 compounds went through this assay and about 12,000 (3.5%) were called active. The shares of active, inactive and inconclusive entries below differ from those in the screen. Calls come from the whole dose curve; as a rule, active = well fitted inhibition curve with a large enough effect; inconclusive = small, poorly fitted or top-dose-only effect, or another doubt; inactive = no such curve, though single readings can be large or run the other way. Potencies of inconclusive entries are left out as doubtful fits.
# Experiment: qHTS Assay for Inhibitors of Hepatitis C Virus (HCV)
# Conditions: Huh7.5.1 HCVcc-Cre (HCVcc is cell-culture hepatitis C virus) infection, luciferase reporter, 44 h; series mostly up to 41.8 µM
# Outline: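 Infectious HCVcc-Cre (~0.5 moi) was added to cells just after compound, with cells seeded 4 h earlier at 1,000 per well. Luciferase activity after 44 h culture reported infection; substrate was incubated 15 min at room temperature before reading.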
# Potency is the fitted concentration of half-maximal effect; tags give direction and shape of the fitted curve.
row,Structure (SMILES),Potency
1,Cc1ccc(S(=O)(=O)N(C)CC(=O)Nc2nc3ccccc3s2)cc1,"inconclusive [inhibitor, single point]"
2,Cc1ccc(NC(=S)NC(=O)/C=C/c2ccco2)c(O)c1,"inconclusive [inhibitor, single point]"
3,CCOC(=O)c1sc(=S)n(Cc2ccccc2)c1C,inactive
4,CC(C)(C)NC(=O)C(c1ccncc1)N(Cc1cccs1)C(=O)Cn1nnc(-c2ccc(F)cc2)n1 (stereo not drawn),"inconclusive [inhibitor, partial curve]"
5,Cc1ccc(-n2ncc3c(=O)n(Cc4cccnc4)cnc32)cc1,"inconclusive [inhibitor, single point]"
6,C#CCOCCOCCOCCNc1nc(N2CCN(C(=O)CCCCCCCCCCNC(=O)[C@H](CCCCN)n3cc(C)nn3)CC2)nc(N2CCN(C(=O)CCCCCCCCCCNC(=O)[C@@H]([C@H](C)O)n3cc(C)nn3)CC2)n1,active: 2.82 µM
7,NC(=O)NC1CCCc2c1[nH]c1ccc(Cl)cc21 (stereo not drawn),active: 6.31 µM
8,Cc1ccc2cccc(OCC(=O)Nc3ccc(N4CCOCC4)cc3)c2n1,"inconclusive [inhibitor, single point]"
9,CN1C[C@@H]2[C@@H]3C(=O)N(Cc4ccccc4)C(=O)[C@@H]3[C@](C)(C1=O)N2C(=O)c1ccc(Cl)cc1,inactive
10,c1cc2c(c(NCc3ccncc3)c1)CCCC2,"inconclusive [inhibitor, single point]"
11,N#Cc1cccc(NC(=O)CCC2CCCC2)c1,"inconclusive [inhibitor, single point]"
12,CCC(=O)Nc1ccc(C(=O)n2ccc(C)n2)cc1,inactive
13,N/C(=N\OC(=O)COc1ccc(Br)cc1Cl)c1cccnc1,inactive
14,Cc1cccc(N2CCN(C(=O)C3(S(=O)(=O)c4ccc(Cl)cc4)CC3)CC2)c1C,"inconclusive [inhibitor, partial curve]"
15,N#CC(c1cccc(Cl)c1)c1ccc2c(C(F)(F)F)cc(C(F)(F)F)nc2n1 (stereo not drawn),active: 2.82 µM
16,Cc1ccc2c(C)cccc2c1,"inconclusive [inhibitor, full curve, poor fit]"
17,Cc1ccc(-n2ncc(C(=O)Nc3cc(Cl)ccc3Cl)c2C2CCNCC2)cc1,active: 12.6 µM
18,FC(F)(F)c1cc(-c2ccccc2)nc(N2CCOCC2)n1,active: 8.91 µM
19,c1ccc(-c2ccc(C3=Nn4c(nnc4-c4cccs4)SC3)cc2)cc1,"inconclusive [inhibitor, single point]"
20,CCN1CCN(C(=O)c2ccc(S(=O)(=O)Nc3ccccc3)cc2)CC1,inactive
21,CC1CCCCN1c1ncnc2ccccc12 (stereo not drawn),"inconclusive [inhibitor, single point]"
22,Cn1c(=Nc2ccccc2)sc2ccccc21,inactive
23,COc1cccc(CNC(=O)CN(C)S(=O)(=O)c2ccc(Br)s2)c1,inactive
24,O=C(CSc1nc2cc(S(=O)(=O)N3CCOCC3)ccc2o1)Nc1c(F)cccc1F,inactive

row,Structure (SMILES),Potency
1,O=c1cc(N2CCCCC2)c(-c2ccccc2)nn1Cc1c(Cl)cccc1Cl,"inconclusive [inhibitor, full curve]"
2,COc1ccc(CCNS(=O)(=O)c2cnc(Cl)c(Br)c2)cc1OC,inactive
3,CCOCCCN(C)C1CCN(S(=O)(=O)c2csc(C(N)=O)c2)CC1,inactive
4,C[C@H](CO)N1C[C@H](C)[C@@H](CN(C)C(=O)Nc2ccccc2)Oc2ccc(NC(=O)Cc3ccccc3)cc2C1=O,inactive
5,COc1ccc(/C=C/C(=O)Nc2cc(C)nn2-c2nc3ccccc3[nH]2)cc1,"inconclusive [inhibitor, single point]"
6,COc1cc(/C=C/C(=O)N2c3ccccc3Sc3ccc(C(F)(F)F)cc32)cc(OC)c1OC,"inconclusive [inhibitor, partial curve, poor fit]"
7,CN(C)C(CNC(=O)c1ccccc1OCc1ccc(Cl)cc1)c1ccco1 (stereo not drawn),active: 17.8 µM
8,CCCCn1c(=N)n(CCOc2ccc(C)cc2)c2ccccc21,inactive
9,Cc1c(C(=O)N/N=C/c2ccc(N(C)C)cc2)[nH]c2ccc(Cl)cc12,"inconclusive [inhibitor, partial curve]"
10,Cn1c(=O)c2c(ncn2Cc2ccc(Cl)cc2)n(C)c1=O,"inconclusive [inhibitor, partial curve]"
11,CC(=O)COC(=O)c1cccc(N2C(=O)C3C4C=CC(C4)C3C2=O)c1 (stereo not drawn),inactive
12,O=C(CCc1ccc(S(=O)(=O)NC2CCCCC2)cc1)Nc1ccccc1,inactive
13,Cc1c(C(=O)N2CCC3(CC2)OCCO3)sc2ncnc(N3CCN(c4ccccn4)CC3)c12,"inconclusive [inhibitor, single point]"
14,CCn1cc(CN2CCCC(C(=O)c3cccc(OC)c3)C2)c(C)n1 (stereo not drawn),"inconclusive [inhibitor, single point]"
15,CC(C)(C)C(=O)Nc1ccc(N=Nc2ccccc2)cc1,"inconclusive [inhibitor, partial curve]"
16,CSc1nnc2c3c4c(sc3nc(-n3nc(C)cc3C)n12)COC(C)(C)C4,inactive
17,CCC(CC)c1nnc(NC(=O)COc2ccc3c(C)cc(=O)oc3c2)s1,"inconclusive [inhibitor, partial curve]"
18,CC(C)=C(NC(=O)c1ccccc1)C(=O)N/N=C/c1ccc(O)cc1,inactive
19,CCCCCNC(=O)c1ccc2c(c1)ncn2-c1ccc(OC)cc1,"inconclusive [inhibitor, single point]"
20,Cc1cnc(NC(=O)c2ccccn2)s1,active: 10 µM
21,CCc1ccc(NC(=O)C(C)OC(=O)c2ccc(NS(=O)(=O)c3ccc(C)c([N+](=O)[O-])c3)cc2)cc1 (stereo not drawn),active: 11.2 µM
22,CC(C)(C)NS(=O)(=O)c1ccc(CCC(=O)Nc2cc(Cl)ccc2Oc2ccccc2)cc1,active: 8.91 µM
23,C=CCn1c(SCC(=O)N(C(C)CC)C2CCS(=O)(=O)C2)nc2ccccc2c1=O (stereo not drawn),inactive
24,COc1ccc(NC(=O)CN(C)C(=O)c2cn(-c3ccccc3)nc2-c2cccs2)cc1,"inconclusive [inhibitor, full curve, poor fit]"
